In PubChem BioAssay AID624171 (National Center for Advancing Translational Sciences (NCATS), 2012):
Among all 410,000 compounds or so, about 1,200 (0.29%) were called active. The shares of active, inactive and inconclusive entries below differ from those in the screen. Calls follow the shape of the dose curve; as a rule, active = well fitted activation curve with a large enough effect; inconclusive = small, poorly fitted or top-dose-only effect; inactive = flat fitted curve, though single readings scatter. A potency beside an inconclusive call is a rough fit, not a confirmed value.

Experiment: qHTS of Nrf2 Activators; also: nearly all actives have a fitted effect of over 65% in size
Conditions: AREc32 ARE-luciferase reporter (MCF7-derived line), luminescence, 24 h; series mostly up to 46.1 µM
Method in brief: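 Luminescent ARE reporter assay in AREc32_Fluc cells: overnight plating at 37 deg C, 24 hr compound incubation, Steady-Glo added, 30 min RT before reading.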
Potency is read from the fitted curve at half-maximal effect; tags tell the direction and shape of the fitted curve.

SMILES	Potency
COc1ccc(-c2nnc(SCC(=O)NC3CCCC3)nc2-c2ccc(OC)c(OC)c2)cc1OC	inactive
COc1ccc(OC)c(/C=C2/Sc3ccccc3C2=O)c1	inconclusive: 2.24 µM [activator, partial curve, poor fit]
Cc1cc(Br)c(NC(=O)CCl)c(Br)c1	inconclusive: 22.4 µM [activator, single point]
COc1cc(SC)ccc1C(=O)Nc1ccccc1C#N	inconclusive: 11.2 µM [activator, partial curve]
O=c1oc(CCO)cc2ccc(C#Cc3ccsc3)cc12	active: 2.51 µM
CC(=O)C(Sc1nn(C)c(=S)s1)C(=O)Nc1ccccc1 (configuration not stated)	inconclusive: 35.5 µM [activator, partial curve, poor fit]
O=C(Cn1ncc2c3ccccc3n(Cc3ccccc3)c2c1=O)N1CCN(c2ncccn2)CC1	inactive
CC(=O)Nc1cc2c(cc1[N+](=O)[O-])-c1ccccc1C2O (configuration not stated)	inconclusive: 10 µM [activator, partial curve]
Cc1cc(Nc2cccc([N+](=O)[O-])c2)c2ccccc2n1	inconclusive: 11.2 µM [activator, partial curve]
O=C(Nc1ccc2c(c1)C(=O)NC2=O)c1ccccc1	inconclusive: 10 µM [activator, partial curve]
Cc1ccc(C(=O)N/N=C\c2ccccc2[N+](=O)[O-])cn1	inconclusive: 7.08 µM [activator, partial curve]
COC(=O)c1scc(-c2ccc(C)cc2)c1S(=O)(=O)Nc1cc(OC)c(OC)c(OC)c1	inconclusive: 28.2 µM [activator, single point]
O=C(Nc1c(Cl)ccc2nsnc12)c1ccc([N+](=O)[O-])o1	inconclusive: 5.62 µM [activator, single point]
CNC(=O)C1C(=S)NC(N)=C(C#N)C1c1ccccc1 (configuration not stated)	inconclusive: 28.2 µM [activator, single point]
COc1ccc(C2(CNC(=O)/C=C\c3ccco3)CCCC2)cc1OC	inconclusive: 11.2 µM [activator, single point]
COC(=O)c1sccc1NC(=O)c1ccc(C)o1	inconclusive: 17.8 µM [activator, single point]
COc1cc(Cl)cc(/C=C/c2ccc3ccccc3n2)c1OC(C)=O	inconclusive: 15.8 µM [activator, single point]
Clc1cccc(Cc2c(-c3ccco3)nc3ccc(Cl)cn23)c1	inconclusive: 3.55 µM [activator, single point]
OCc1c[nH]c2ccccc12	inactive
CCOC(=O)CCCNC(=O)COC(=O)c1cc(Br)c(Br)s1	inconclusive: 12.6 µM [activator, single point]
Cc1cccc(NC(=O)c2ccc(N(Cc3ccccc3)S(C)(=O)=O)cc2)c1	inconclusive: 11.2 µM [activator, partial curve]
CCc1nnc(NC(=O)C(NC(=O)c2ccccc2Cl)C(C)C)s1 (configuration not stated)	inactive
CCOc1ccc2c(c1)S/C(=C\c1cccs1)C(=O)N2	inconclusive: 1.58 µM [activator, full curve, poor fit]

SMILES	Potency
COc1ccc(N=C2NC(=O)/C(=C/c3ccco3)S2)cc1	inactive
O=C(NNC(=O)c1ccccc1OCc1ccccc1)c1ccccc1F	inconclusive: 14.1 µM [activator, partial curve, poor fit]
Cc1ccccc1C(=O)O/N=C(\N)c1ccncc1	inconclusive: 10 µM [activator, partial curve]
CCN1CCN(CCCNC(=O)c2cc3c(=O)n(C)c4ccccc4c3s2)CC1	inconclusive: 11.2 µM [activator, partial curve]
CCOC(=O)c1cnc2ccc(C)cc2c1Sc1ccc(F)cc1	inconclusive: 35.5 µM [activator, single point]
CCN(CC)C(=O)CSC1=N/C(=C/c2ccco2)C(=O)N1c1ccc(OC)c(Cl)c1	inconclusive: 15.8 µM [activator, single point]
COc1ccc2c(c1)C(C)CC(C)(C)N2C(=O)NC1CCCCC1 (configuration not stated)	inconclusive: 20 µM [activator, single point]
CCCCCCC(=O)N(O)C1CC(=O)N(c2ccc(F)cc2)C1=O (configuration not stated)	inconclusive: 20 µM [activator, single point]
O=C(/C=C/c1ccc(O)cc1)c1ccc(O)cc1O	inconclusive: 12.6 µM [activator, partial curve, poor fit]
COc1ccc(OC)c(/C=N/c2oc(-c3ccco3)c(-c3ccco3)c2C#N)c1	inconclusive: 20 µM [activator, single point]
CCOC(=O)C(C#N)=CN1CCN(C(=O)CCCl)c2ccccc21	inconclusive: 15.8 µM [activator, partial curve, poor fit]
Cc1ccc(S(N)(=O)=O)cc1NC(=O)/C=C/c1cccs1	active: 12.6 µM
CCOc1cc(/C=C2\CCCC(C(=O)C(F)(F)F)=C2O)ccc1O	inconclusive: 22.4 µM [activator, single point]
Cc1nn(-c2ccccc2)nc1C(=O)Nc1ccc2c(c1)OCCO2	inconclusive: 11.2 µM [activator, partial curve]
O=[N+]([O-])c1cc(/C=N/n2c(-c3cccnc3)n[nH]c2=S)ccc1Cl	inconclusive: 17.8 µM [activator, partial curve, poor fit]
O=C(CCl)Nc1cccc(-c2cnc3ccccc3n2)c1	inconclusive: 3.98 µM [activator, single point]
Cc1ccc(/C=N/n2c(-c3cccnc3)n[nH]c2=S)o1	inconclusive: 15.8 µM [activator, single point]
O=[N+]([O-])c1cc(C(F)(F)F)ccc1Oc1cccnc1[N+](=O)[O-]	inconclusive: 22.4 µM [activator, single point]
CSc1ccc(C(=O)/C=C/c2ccc(N)cc2)cc1	inconclusive: 20 µM [activator, partial curve, poor fit]
COc1cccc(-c2cc(C(=O)Nc3cc(Cl)ccc3O)on2)c1	active: 7.94 µM
CCOc1cccc2sc(N(CCN(C)C)C(=O)/C=C/c3cccs3)nc12	inconclusive: 11.2 µM [activator, partial curve, poor fit]
CC(=O)c1cccc(N(C(=O)c2ccco2)C(C(=O)NC2CCCC2)c2ccccc2F)c1 (configuration not stated)	inactive
CCN1CCN(C(=S)c2ccc(Cl)c(Cl)c2)CC1	inactive

SMILES	Potency
O=[N+]([O-])c1ccc(Cl)c2c1C1C=CCC1C(c1ccccn1)N2 (configuration not stated)	inconclusive: 14.1 µM [activator, single point]
CSc1nsc(SC)c1C(=O)Nc1ccc(C)cc1	inconclusive: 2 µM [activator, full curve, poor fit]
NC(=O)c1cccc(-c2noc(-c3ccccc3F)n2)c1	inconclusive: 6.31 µM [activator, partial curve, poor fit]
CS(=O)(=O)c1ccc(Sc2nc3ccccc3[nH]2)c([N+](=O)[O-])c1	inconclusive: 35.5 µM [activator, single point]
COc1ncccc1-c1nnn(-c2ccc(F)cc2)n1	inconclusive: 12.6 µM [activator, partial curve, poor fit]
Cc1cc(-c2ccc(C)c(S(=O)(=O)N3CCN(c4ccccn4)CC3)c2)on1	inactive
Nc1cc2c([N+](=O)[O-])cccc2o1	inconclusive: 17.8 µM [activator, partial curve, poor fit]
Fc1cc(Cl)cc2ccc(-c3ccccc3)nc12	inconclusive: 12.6 µM [activator, partial curve]
O=C(CC(Sc1ccccc1)c1cccs1)c1ccco1 (configuration not stated)	active: 17.8 µM
Oc1ccccc1-c1cc(C(F)(F)F)nc(-c2ccccc2)n1	inconclusive: 10 µM [activator, partial curve, poor fit]
COc1ccccc1NC(=O)c1cnc(SCC(=O)NCC2CCCO2)n(C)c1=O (configuration not stated)	inconclusive: 12.6 µM [activator, partial curve]
COCCNc1ccc([N+](=O)[O-])cc1C(=O)Nc1cccc(C)n1	inconclusive: 17.8 µM [activator, single point]
CC(Sc1nc2ccccc2c(=O)n1C)C(=O)Nc1ccc2c(c1)OCCO2 (configuration not stated)	inactive
CCS(=O)(=O)c1nnnn1-c1ccccc1S(C)(=O)=O	inconclusive: 1.26 µM [activator, full curve, poor fit]
O=C(/C=C/c1ccccc1)c1ccc2c(c1)OCO2	inconclusive: 20 µM [activator, single point]
S=C(NNc1cccc(Cl)c1)NC1CCCCC1	inconclusive: 35.5 µM [activator, single point]
CCOC(=O)C(NC(=O)CCl)(Nc1sc(C)c(CC)c1C#N)C(F)(F)F (configuration not stated)	inconclusive: 20 µM [activator, partial curve, poor fit]
O=C1C(=Cc2cccc(Cl)c2)CCc2ccccc21	inconclusive: 22.4 µM [activator, single point]
C=CCNC(=O)c1c(Br)cnn1-c1ccc(C)cc1	inconclusive: 14.1 µM [activator, single point]
O=C(Nc1cccnc1)c1ccc(-c2ccccc2)cc1	inactive
Sc1oc(-c2ccccc2)cc1C=Nc1ccccc1	inconclusive: 11.2 µM [activator, single point]
